From publication PMC9911399, “Two distinct binding modes provide the RNA-binding protein RbFox with extraordinary sequence specificity” come the findings set out here.

The labels stand for the following.
T1: RBFOX1 RRM RbFoxmut (Fox-RRM*) (Homo sapiens, UniProt Q9NWB1 109-208, R118D;E147R;N151S;E152T)
T1 sequence: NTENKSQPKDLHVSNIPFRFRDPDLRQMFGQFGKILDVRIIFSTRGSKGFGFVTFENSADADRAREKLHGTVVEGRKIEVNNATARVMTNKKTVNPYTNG

B1: CUUGGCG (DNA:RNA)
RNA: GGGAGACCGGAAUUCAGAUUGUCCCUUGGCGUUAAAUCCCGUCGUAGCCACCA
DNA 1: CAATCTGAATTCCGGTCTCCC
DNA 2: TGGTGGCTACGACGGGATT
B2: GAACAUC (DNA:RNA)
RNA: GGGAGACCGGAAUUCAGAUUGUCCGAACAUCUUAAAUCCCGUCGUAGCCACCA
DNA 1: CAATCTGAATTCCGGTCTCCC
DNA 2: TGGTGGCTACGACGGGATT
B3: ACGUUGU (DNA:RNA)
RNA: GGGAGACCGGAAUUCAGAUUGUCCACGUUGUUUAAAUCCCGUCGUAGCCACCA
DNA 1: CAATCTGAATTCCGGTCTCCC
DNA 2: TGGTGGCTACGACGGGATT
B4: UAAGAAU (DNA:RNA)
RNA: B2 RNA with G25U, C28G, U30A, C31U
DNA 1: CAATCTGAATTCCGGTCTCCC
DNA 2: TGGTGGCTACGACGGGATT
B5: GACGCAG (DNA:RNA)
RNA: B1 RNA with C25G, U26A, U27C, G29C, C30A
DNA 1: CAATCTGAATTCCGGTCTCCC
DNA 2: TGGTGGCTACGACGGGATT
B6: AUUCCAU (DNA:RNA)
RNA: B3 RNA with C26U, G27U, U28C, U29C, G30A
DNA 1: CAATCTGAATTCCGGTCTCCC
DNA 2: TGGTGGCTACGACGGGATT
B7: AGUAGAC (DNA:RNA)
RNA: B1 RNA with C25A, U26G, G28A, C30A, G31C
DNA 1: CAATCTGAATTCCGGTCTCCC
DNA 2: TGGTGGCTACGACGGGATT
B8: AUCGAUC (DNA:RNA)
RNA: B2 RNA with G25A, A26U, A27C, C28G
DNA 1: CAATCTGAATTCCGGTCTCCC
DNA 2: TGGTGGCTACGACGGGATT
B9: CCGACAC (DNA:RNA)
RNA: B3 RNA with A25C, U28A, U29C, G30A, U31C
DNA 1: CAATCTGAATTCCGGTCTCCC
DNA 2: TGGTGGCTACGACGGGATT
B10: ACGAGCA (DNA:RNA)
RNA: B3 RNA with U28A, U29G, G30C, U31A
DNA 1: CAATCTGAATTCCGGTCTCCC
DNA 2: TGGTGGCTACGACGGGATT
B11: GAACAUG (DNA:RNA)
RNA: B2 RNA with C31G
DNA 1: CAATCTGAATTCCGGTCTCCC
DNA 2: TGGTGGCTACGACGGGATT
B12: GGAGCUA (DNA:RNA)
RNA: B2 RNA with A26G, C28G, A29C, C31A
DNA 1: CAATCTGAATTCCGGTCTCCC
DNA 2: TGGTGGCTACGACGGGATT
B13: CCUUGCG (DNA:RNA)
RNA: B1 RNA with U26C, G28U
DNA 1: CAATCTGAATTCCGGTCTCCC
DNA 2: TGGTGGCTACGACGGGATT
B14: CAGUUCG (DNA:RNA)
RNA: B3 RNA with A25C, C26A, G30C, U31G
DNA 1: CAATCTGAATTCCGGTCTCCC
DNA 2: TGGTGGCTACGACGGGATT
B15: AAAACGU (DNA:RNA)
RNA: B3 RNA with C26A, G27A, U28A, U29C
DNA 1: CAATCTGAATTCCGGTCTCCC
DNA 2: TGGTGGCTACGACGGGATT
B16: UAGAAGG (DNA:RNA)
RNA: B3 RNA with A25U, C26A, U28A, U29A, U31G
DNA 1: CAATCTGAATTCCGGTCTCCC
DNA 2: TGGTGGCTACGACGGGATT
B17: ACAAGGG (DNA:RNA)
RNA: B3 RNA with G27A, U28A, U29G, U31G
DNA 1: CAATCTGAATTCCGGTCTCCC
DNA 2: TGGTGGCTACGACGGGATT
B18: GCUAUCG (DNA:RNA)
RNA: B1 RNA with C25G, U26C, G28A, G29U
DNA 1: CAATCTGAATTCCGGTCTCCC
DNA 2: TGGTGGCTACGACGGGATT
B19: UCCCCAG (DNA:RNA)
RNA: B3 RNA with A25U, G27C, U28C, U29C, G30A, U31G
DNA 1: CAATCTGAATTCCGGTCTCCC
DNA 2: TGGTGGCTACGACGGGATT
B20: GUAAUGU (DNA:RNA)
RNA: B3 RNA with A25G, C26U, G27A, U28A
DNA 1: CAATCTGAATTCCGGTCTCCC
DNA 2: TGGTGGCTACGACGGGATT

Where a chain is given by its changes, count along the chain named. This is one part of the list.

The target in the experiment is T1, RBFOX1 RRM RbFoxmut (Fox-RRM*). The experiment can be described thus: EMSA; HiTS-Eq, 1 nM pool, 10 min; buffer printed only for the single-RNA assays: 10 mM Tris pH 7.5, 150 mM NaCl, 3.4 mM EDTA, 0.001% NP-40, 30 C. As to conditions: tags: His6 N-terminal (pET28a); label: 5' 32P. In a few lines: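 A pool of RNA with 7 randomized nucleotides, 5′-radiolabelled and with DNA-annealed flanks, was equilibrated at 1 nM for 10 min in 50 µL with purified RbFox RRM, wild type or mutant, across increasing protein concentrations. Free RNA was separated by 8% native PAGE, excised, reverse-transcribed, barcoded by PCR and sequenced. Relative association constants were obtained from read-count changes of each RNA species versus the control reaction and normalised to the cognate motif.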
Take B1: the binding signal was 0.136 KA relative to UGCAUGU. In the case of B2 it was 0.0551 KA relative to UGCAUGU; in that of B3, 0.154 KA relative to UGCAUGU. Under B4 stands 0.0808 KA relative to UGCAUGU; under B5, 0.0954 KA relative to UGCAUGU. Under B6 stands 0.097 KA relative to UGCAUGU. Take B7: the binding signal is 0.0769 KA relative to UGCAUGU. Under B8 stands 0.0676 KA relative to UGCAUGU; under B9, 0.067 KA relative to UGCAUGU; under B10, 0.156 KA relative to UGCAUGU. In the case of B11 it was 0.0953 KA relative to UGCAUGU; in that of B12, 0.0975 KA relative to UGCAUGU. In the case of B13 it was 0.124 KA relative to UGCAUGU; in that of B14, 0.158 KA relative to UGCAUGU; in that of B15, 0.0727 KA relative to UGCAUGU. Take B16: the binding signal is 0.0839 KA relative to UGCAUGU. Under B17 stands 0.0692 KA relative to UGCAUGU; under B18, 0.117 KA relative to UGCAUGU. Under B19 stands 0.0984 KA relative to UGCAUGU. Turning to B20, the binding signal is 0.154 KA relative to UGCAUGU.
